The source of these data is US20180044686A1, “TOOLS AND METHODS FOR USING CELL DIVISION LOCI TO CONTROL PROLIFERATION OF CELLS” (Sinai Health System, priority 2015, published 2018).

The test system of the assay is mouse ES cells with an HSV-TK-mCherry knock-in into the 3′UTR of the CDK1 locus. The experiment in a line: GCV killing of ALINK-modified (Cdk1-HSV-TK) mouse ES cells in vitro.

On to `Nc1nc(O)c2ncn(COC(CO)CO)c2n1` [GCV, ganciclovir], for which, for the setting “GCV 0.01 μM, 3 days, n=5”, the “cell growth (colony size)” value is given as “slowed down cell growth” and the colony number entry is recorded as “did not affect the colony number”. For the same molecule, for the setting “homozygously- and heterozygously-modified cells”, the “ablation of undifferentiated ES cells” value is “ablates both homozygously- and heterozygously-modified cells”.
